In the supplement of paper PMC8813932:
Structures can show the parent of a compound that is named as a salt. ± gives the standard deviation of the averaged measurements. Some of the results follow. Repeats are few or missing, and single values can be far off.

Tests used:
Experiment in all cases: log2 surviving fraction relative to plate median (drug vs vehicle, or drug+dl922-947 vs dl922-947 alone); ovarian cancer lines: OVCAR4 is platinum-sensitive while Ov4Cis resists cisplatin and Ov4Carbo carboplatin; higher = more cell survival
Settings in all cases: compound concentration: 10 uM, 192 h
OVCAR4 = system: OVCAR4
Ov4Carbo = system: Ov4Carbo
Ov4Cis = system: Ov4Cis
[1] = dl922-947 oncolytic adenovirus co-treatment: MOI 10
[2] = dl922-947 oncolytic adenovirus co-treatment: none

SMILES	log2 surviving fraction (OVCAR4; [1])	log2 surviving fraction (OVCAR4; [2])	log2 surviving fraction (Ov4Carbo; [1])	log2 surviving fraction (Ov4Carbo; [2])	log2 surviving fraction (Ov4Cis; [1])	log2 surviving fraction (Ov4Cis; [2])
CN(C)CCCOc1nn(Cc2ccccc2)c2ccccc12 [Benzydamine Hydrochloride]	-0.914 ± 0.82	-1.21 ± 0.26	-0.593	-0.00198	-0.864	-0.658
Nc1nc2ccc(OC(F)(F)F)cc2s1 [Riluzole (Rilutek)]	-0.414 ± 0.38	-0.238 ± 0.81	-0.258	-1.66	-0.504	-0.655
COc1cc2nc(N3CCN(C(=O)C4CCCO4)CC3)nc(N)c2cc1OC (configuration not stated) [Terazosin HCl (Hytrin)]	0.4 ± 0.58	-0.123 ± 0.046	-0.659	0.683	1.47	0.697
CC(C)c1c(CN(C)C(C)Cc2ccccc2)n(C)n(-c2ccccc2)c1=O (configuration not stated) [Famprofazone]	-0.543 ± 0.6	-0.375 ± 0.87	1.24	0.862	-0.856	-0.831
CC(C)NCC(O)COc1cccc2[nH]ccc12 (configuration not stated) [Pindolol]	0.0836 ± 0.55	-0.0101 ± 0.86	0.537	-0.489	-0.163	-0.121
C#C[C@]1(O)C=C[C@H]2[C@@H]3CCC4=CC(=O)CC[C@@H]4[C@H]3CC[C@@]21CC [Gestodene]	-0.442 ± 0.39	-1.36 ± 0.028	-0.61	-1.96	-0.363	-0.625
COc1cccc(N(C)C(=S)Oc2ccc3c(c2)CCCC3)n1 [Liranaftate]	0.224 ± 0.3	-0.325 ± 0.42	0.334	-0.269	-0.679	-0.62
CC(C)c1nc(CN(C)C(=O)N[C@H](C(=O)N[C@@H](Cc2ccccc2)C[C@H](O)[C@H](Cc2ccccc2)NC(=O)OCc2cncs2)C(C)C)cs1 [Ritonavir]	0.229 ± 0.46	-3.27 ± 3.5	-0.383	-0.794	-0.0776	-0.754
CC(C)NC[C@H](O)COc1ccc(CCOCC2CC2)cc1 [Levobetaxolol HCl]	-0.475 ± 0.75	0.868 ± 1.6	0.217	-0.58	-0.236	-0.782
COc1ccc(-c2ccc3cc(C(=O)O)ccc3c2)cc1C12CC3CC(CC(C3)C1)C2 [Adapalene]	0.823 ± 0.84	0.699 ± 0.87	-2.58	-1.6	0.635	1.17
C1N2CN3CN1CN(C2)C3 [Methenamine (Mandelamine)]	0.0864 ± 0.1	0.184 ± 0.42	1.07	0.302	0.232	1.16
NCC(O)c1ccc(O)cc1 (racemic) [(+,-)-Octopamine HCl]	-0.497 ± 0.43	-0.215 ± 0.059	0.449	0.312	0.234	-0.235
CCc1cc(C(N)=S)ccn1 [Ethionamide]	-0.338 ± 0.87	0.391 ± 1.2	-0.288	0.808	-1.02	1.2
CCCC(=O)Nc1ccc(OCC(O)CNC(C)C)c(C(C)=O)c1 (configuration not stated) [Acebutolol HCl]	0.794 ± 0.34	1.01 ± 0.22	-0.228	-1.26	0.514	0.156
O=C(O)c1nn(Cc2ccc(Cl)cc2Cl)c2ccccc12 [Lonidamine]	-0.0136 ± 0.75	0.129 ± 0.014	0.395	-0.0368	-0.146	0.127
CCCC(C(=O)OCCN(CC)CC)(c1ccccc1)c1ccccc1 [Proadifen HCl]	-1.06 ± 0.59	-1.67 ± 0.7	-2.83	-1.72	-3.44	-1.12
CC(=O)Oc1ccc(C(c2ccc(OC(C)=O)cc2)c2ccccn2)cc1 [Bisacodyl]	-2.2 ± 0.74	-3.99 ± 0.87	-0.824	-0.521	-0.889	-0.192
O=P(O)(O)C(O)(Cc1cccnc1)P(=O)(O)O [Risedronate sodium]	0.204 ± 0.3	0.473 ± 1.2	-0.0678	2.72	1.07	0.742
O=C1c2ccccc2C(=O)C1c1ccccc1 [Phenindione (Rectadione)]	0.244 ± 0.76	0.242 ± 0.33	0.381	0.317	0.926	2.3
O=C(O)c1cn(-c2ccc(F)cc2)c2cc(N3CCNCC3)c(F)cc2c1=O [Sarafloxacin HCl]	-0.638 ± 0.67	0.745 ± 0.67	-0.976	-0.169	-0.0881	0.524
CC(Oc1c(Cl)cccc1Cl)C1=NCCN1 (configuration not stated) [Lofexidine  HCl]	-0.0326 ± 0.62	0.929 ± 1.5	0.0104	-0.0538	-0.0339	0.592
CCCCOc1ccc(OCCCN2CCOCC2)cc1 [Pramoxine HCl]	-0.668 ± 0.24	-0.518 ± 1.3	-0.2	-0.463	-0.00621	-1.03
CC1(C)[C@H](C(=O)O)N2C(=O)C[C@H]2S1(=O)=O [Sulbactam sodium (Unasyn)]	0.436 ± 0.25	-0.865 ± 1.9	1.6	0.11	0.37	0.341
CC[C@@]1(O)C(=O)OCc2c1cc1n(c2=O)Cc2cc3ccccc3nc2-1 [Camptothecin]	-7.52 ± 0.97	-9.78 ± 6.2	-5.34	-10.2	-6.37	-12.4

SMILES	log2 surviving fraction (OVCAR4; [1])	log2 surviving fraction (OVCAR4; [2])	log2 surviving fraction (Ov4Carbo; [1])	log2 surviving fraction (Ov4Carbo; [2])	log2 surviving fraction (Ov4Cis; [1])	log2 surviving fraction (Ov4Cis; [2])
CN(C)CCN(Cc1cccs1)c1ccccn1 [Methapyrilene HCl]	0.0219 ± 1.8	-0.139 ± 0.34	0.578	0.642	0.275	-0.299
C[C@]12CC[C@H]3[C@@H](CC[C@@]45O[C@@H]4C(O)=C(C#N)C[C@]35C)[C@@H]1CC[C@@H]2O [Trilostane]	0.771 ± 0.74	0.0911 ± 0.17	0.404	-0.632	0.18	0.0143
Oc1ncnc2[nH]ncc12 [Allopurinol (Zyloprim)]	-0.0616 ± 0.77	-0.158 ± 0.12	2.6	0.448	0.368	-0.436
Cc1ccc(C(=O)c2ccc(CC(=O)O)n2C)cc1 [Tolmetin Sodium]	0.0381 ± 0.19	0.214 ± 0.19	0.0715	0.383	1.26	-0.942
C[N+](C)(C)CCCCCC[N+](C)(C)C [Hexamethonium bromide]	-0.12 ± 0.2	0.654 ± 0.97	-2.07	0.0464	-0.214	0.383
Cc1cccc(CN2CCN(C(c3ccccc3)c3ccc(Cl)cc3)CC2)c1 (configuration not stated) [Meclizine 2HCl]	-0.658 ± 0.33	-0.233 ± 0.27	-1.01	-1.47	0.358	-0.265
COc1ccc(-n2nc(C(N)=O)c3c2C(=O)N(c2ccc(N4CCCCC4=O)cc2)CC3)cc1 [Apixaban]	-0.158 ± 0.22	-0.46 ± 0.65	-0.0495	-0.444	-0.425	-0.717
CCOc1ccc2nc3cc(N)ccc3c(N)c2c1 [Ethacridine lactate monohydrate]	-7.73 ± 4.8	-11.9 ± 8.5	-2.26	-8.26	-9.24	-17.3
CCCCC(=O)N(Cc1ccc(-c2ccccc2-c2nnn[nH]2)cc1)[C@H](C(=O)O)C(C)C [Valsartan (Diovan)]	-0.0552 ± 0.27	0.359 ± 0.42	0.436	-1.7	0.408	-0.152
CNC1CCCN(c2c(F)cc3c(=O)c(C(=O)O)cn(C4CC4)c3c2OC)C1 (configuration not stated) [Balofloxacin]	0.676 ± 0.59	1.03 ± 0.56	-1.03	0.492	0.55	1.27
Cc1cc(C(C#N)c2ccc(Cl)cc2)c(Cl)cc1NC(=O)c1cc(I)cc(I)c1O (configuration not stated) [Closantel]	0.231 ± 0.35	0.586 ± 0.26	1.47	-0.241	0.727	0.396
CC(=O)OCC(=O)[C@H]1CC[C@H]2[C@@H]3CCC4=CC(=O)CC[C@]4(C)[C@H]3CC[C@]12C [Deoxycorticosterone acetate]	0.54 ± 0.18	0.327 ± 0.11	0.256	0.703	0.631	0.976
Nc1ncn([C@H]2C[C@H](O)[C@@H](CO)O2)c(=O)n1 [Decitabine]	-3.01 ± 0.42	-3.84 ± 4.8	-1.62	0.651	-3.21	-5.4
Cc1ccc(NC(=O)c2ccc(CN3CCN(C)CC3)cc2)cc1Nc1nc(-c2cccnc2)cs1 [Masitinib (AB1010)]	-0.266 ± 0.035	-4.1 ± 3.4	-1.3	-1.64	-3.8	-2.55
CCn1nc(C(=O)O)c(=O)c2cc3c(cc21)OCO3 [Cinoxacin]	-0.0568 ± 0.15	-0.0842 ± 1.1	-1.07	0.139	0.955	-0.685
C=Cc1c(C)c2cc3nc(cc4[nH]c(cc5nc(cc1[nH]2)C(C)=C5CCC(=O)O)c(CCC(=O)OC)c4C)[C@@]1(C)C3=CC=C(C(=O)OC)[C@H]1C(=O)OC [Verteporfin (Visudyne)]	-0.863 ± 0.73	-1.33 ± 0.6	-0.737	-0.482	-1.9	-0.4
CCOc1nc2cccc(C(=O)O)c2n1Cc1ccc(-c2ccccc2-c2noc(=O)[nH]2)cc1 [Azilsartan (TAK-536)]	0.3 ± 0.095	0.854 ± 1	2.97	-0.383	0.47	-1.38
Nc1ccc(S(=O)(=O)Nc2ncccn2)cc1 [Sulfadiazine]	0.438 ± 0.48	0.0662 ± 0.31	-0.993	1.17	-0.109	1
CCc1cccc2c3c([nH]c12)C(CC)(CC(=O)O)OCC3 (configuration not stated) [Etodolac (Lodine)]	0.111 ± 0.42	0.325 ± 0.46	0.0503	-0.597	0.558	0.209
C[C@@H]1CCN(C(=O)CC#N)C[C@@H]1N(C)c1ncnc2[nH]ccc12	0.087 ± 0.94	-0.0842 ± 0.94	1.48	-0.344	0.309	-0.141
CC(=O)CCCCn1c(=O)c2c(ncn2C)n(C)c1=O [Pentoxifylline]	0.314 ± 0.39	-0.456 ± 1.3	-0.00997	0.248	-0.296	0.406
CC(C)(C)c1nc(-c2cccc(NS(=O)(=O)c3c(F)cccc3F)c2F)c(-c2ccnc(N)n2)s1	1.1 ± 0.59	0.379 ± 0.69	2.53	-4.75	1.35	-0.495
C=C1C[C@@H]2[C@H](CC[C@]3(C)C(=O)CC[C@@H]23)[C@@]2(C)C=CC(=O)C=C12 [Exemestane]	0.374 ± 0.28	-1.3 ± 2.3	0.207	0.809	0.16	0.599
